Laboratory results as given in PubChem BioAssay AID2147 (National Center for Advancing Translational Sciences (NCATS), 2009).
“And” between values parts separate entries of the source, which are not always exact repeats. Equal values may be shown once. Hit rate of the full screen: of about 230,000 compounds, about 3,600 (1.6%) were called active. The inconclusive results got no clear call from the source; some entries with a clear call stand among them for comparison. The call rests on the fitted dose curve; in most records, active means well fitted inhibition curve with a large enough effect (not every such curve was filed as active); inconclusive means small, poorly fitted or top-dose-only effect, or another doubt; inactive means no such curve, though single readings can be large or run the other way. A potency beside an inconclusive call is a rough fit, not a confirmed value.

Each compound was assayed against Lysine-specific demethylase 4E (Homo sapiens) (UniProt B2RXH2) (assay: qHTS Assay for Inhibitors of Human Jumonji Domain Containing 2E (JMJD2E)). Settings: JMJD2E catalytic domain, FDH-coupled NADH fluorescence (FDH is formaldehyde dehydrogenase); series mostly up to 57.1 µM; activity change, negative = inhibition: at the top concentration.
Further: nearly all actives have a fitted effect of over 50% in size.
Potency means the concentration at half of the fitted maximal effect; tags describe the fitted curve by direction and shape.
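Wherever activity change, negative = inhibition is given: 0% = wells with enzyme and -100% = buffer wells without enzyme.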

Sequence of UniProt B2RXH2 (B2RXH2 whole entry, looked up, the tested form may be a part): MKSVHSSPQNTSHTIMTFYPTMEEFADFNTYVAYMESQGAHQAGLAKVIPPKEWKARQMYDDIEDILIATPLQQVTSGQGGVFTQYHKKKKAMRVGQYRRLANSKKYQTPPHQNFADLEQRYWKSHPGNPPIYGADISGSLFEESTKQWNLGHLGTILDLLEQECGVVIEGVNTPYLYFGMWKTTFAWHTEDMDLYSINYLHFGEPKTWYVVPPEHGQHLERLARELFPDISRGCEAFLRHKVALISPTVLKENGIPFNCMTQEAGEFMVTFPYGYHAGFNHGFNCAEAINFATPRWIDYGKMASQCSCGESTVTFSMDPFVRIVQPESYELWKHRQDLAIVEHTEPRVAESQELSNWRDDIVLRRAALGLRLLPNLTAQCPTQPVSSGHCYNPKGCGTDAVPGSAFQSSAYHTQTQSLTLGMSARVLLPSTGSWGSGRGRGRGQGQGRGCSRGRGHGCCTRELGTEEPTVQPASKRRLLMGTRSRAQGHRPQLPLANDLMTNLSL

| Compound | Potency | activity change, negative = inhibition |
| --- | --- | --- |
| O=C1CC(Nc2ccc(N3CCOCC3)cc2)C(=O)N1Cc1ccccc1 (configuration not stated) | inconclusive: 39.8 µM [inhibitor, single point] | – |
| NC(=O)c1ccc(-c2ncc(-c3ccccc3)o2)cc1 | inconclusive: 28.2 µM [inhibitor, partial curve] | – |
| CC(C)(C)OC(=O)NCCC(=O)Oc1ccc2ccc(=O)oc2c1 | inconclusive: 0.708 µM [inhibitor, full curve] | – |
| COc1ccccc1CNC(=O)C(NC(=O)c1ccccc1C)C(C)C (configuration not stated) | – | inactive: -0.0723% |
| O=C(CN1CCOCC1)N/N=C/c1ccc(-c2ccc(Br)cc2)o1 | inconclusive: 31.6 µM [inhibitor, single point] | – |
| Cc1nc(N2CCC(C)CC2)c2oc3ccccc3c2n1 | – | inactive: -2.38% |
| CC(C)OC(=O)CC(=O)CSc1nc2c(c(-c3cccs3)c1C#N)CCC2 | inconclusive: 39.8 µM [inhibitor, single point] | – |
| C=CCn1c(CC#N)nnc1N1CCOCC1 | – | inactive: -12.5% |
| Cc1ccc(-c2nc(N)n(C(=O)c3cccs3)n2)cc1 | inconclusive: 35.5 µM [inhibitor, partial curve] | – |
| O=[N+]([O-])c1ccc(-c2cn3c(n2)CCC3)cc1 | – | inactive: -5.29% |
| CC1CCCN(C(=O)CSc2nc3ncccc3[nH]2)C1 (configuration not stated) | – | inactive: 2.91% |
| CCSc1cnc(-c2ccccc2)n1CC | inconclusive: 39.8 µM [inhibitor, single point] | – |
| CCOc1ccc2nc(/N=C/c3nc(-c4ccc(Br)cc4)oc3O)sc2c1 | inconclusive: 2.24 µM [inhibitor, partial curve] | – |
| CCCCCc1cc(=O)oc2c(C(CCN3CCCC(C)C3)c3ccc4c(c3)OCO4)c(OC)cc(OC)c12 (configuration not stated) | – | inactive: 10.1% |
| CN(C)S(=O)(=O)c1ccc(NC(=S)NC(=O)c2ccc(Br)o2)cc1 | – | inactive: -0.492% |
| Cc1ccc(C)n1CCN1CCN(C(=O)CC#N)CC1 | inconclusive: 39.8 µM [inhibitor, single point] | – |
| CCCCOC(=O)CCc1nc2ccccc2[nH]c1=O | inconclusive: 28.2 µM [inhibitor, single point] | – |
| O=C(CCCCCn1c(=O)[nH]c2ccccc2c1=O)N1CCN(Cc2ccc3c(c2)OCO3)CC1 | – | inactive: -3.24% |
| COc1cc(NS(C)(=O)=O)ccc1Cc1c2ccccc2nc2ccccc12 | inconclusive: 35.5 µM [inhibitor, single point] | – |
| CCc1cccc(C)c1NC(=O)CN(C)Cc1ccccc1F | – | inactive: 8.51% |
| CC(=O)c1ccc(N2C(=O)C3C(C2=O)C(C(=O)c2ccc(Cl)cc2)N2CCCC32)cc1 (configuration not stated) | inconclusive: 39.8 µM [inhibitor, single point] | – |
| CCOC(=O)c1sc2nc(C)nc(Nc3ccc(OC)c(OC)c3)c2c1C | inconclusive: 39.8 µM [inhibitor, single point] | – |
| COC(=O)c1nn(-c2ccccc2)c(Sc2ccc(OC)cc2)c1/C=N/O | inconclusive: 28.2 µM [inhibitor, partial curve] | – |
| CCCCCCCc1ccc(C2NC(=S)NC3=C2C(=O)c2ccccc23)cc1 (configuration not stated) | – | inactive: -1.83% |

| Compound | Potency | activity change, negative = inhibition |
| --- | --- | --- |
| COC(=O)CSCc1nc2ccccc2[nH]c1=O | inconclusive: 22.4 µM [inhibitor, partial curve] | – |
| C/C(CC(=O)N1CCN(C=O)CC1)=N\NC(=O)c1cc2ccccc2cc1O | active: 28.2 µM | – |
| OCC1OC(n2cnc3c(Cl)ncnc32)C(O)C1O (configuration not stated) | – | inactive: 2.76% |
| CCOc1ccc(C(=O)NC(Cc2ccccc2)C(=O)OC)cc1 (configuration not stated) | – | inactive: 6% |
| Cc1sc(-n2c(C)ccc2C)c(C#N)c1C | – | inactive: 4.69% |
| COCCSc1nnc(NC(=O)c2ccc3c(c2)OCO3)s1 | inconclusive: 35.5 µM [inhibitor, single point] | – |
| O=C(Nc1ccc(F)cc1)Nc1sccc1-c1nc2ccccc2s1 | inconclusive: 25.1 µM [inhibitor, partial curve] | – |
| COCCNC(=O)Nc1ccc2nc(-c3ccco3)c(-c3ccco3)nc2c1 | inconclusive: 28.2 µM [inhibitor, partial curve] | – |
| CCCCNC(=O)c1cc2c(-c3ccc(Cl)cc3)nn(C)c2s1 | inconclusive: 25.1 µM [inhibitor, partial curve] | – |
| CCN1CCCC1Cn1c(-c2ccccc2)nc2c(N(CCOC)CCOC)nc(C)nc21 (configuration not stated) | inconclusive: 28.2 µM [inhibitor, partial curve] | – |
| COc1ccc(C(=O)c2sc3nc(-c4ccc(OC)cc4)ccc3c2N)cc1 | inconclusive: 25.1 µM [inhibitor, partial curve] | – |
| Cc1ccc(S(=O)(=O)NC(=O)NN2CC3CCCC3C2)cc1 (configuration not stated) | inactive | – |
| Oc1cc(Br)ccc1C=Nc1ccc(N2CCCCC2)cc1 | – | inactive: -12.3% |
| O=c1c2cc(Cl)ccc2nc(-c2ccccc2Cl)n1O | inconclusive: 35.5 µM [inhibitor, single point] | – |
| O=C(Oc1ccc(/C=N/NC(=O)c2ccccc2O)cc1)c1ccccc1 | inconclusive: 22.4 µM [inhibitor, single point] | – |
| O=C(Cn1[nH]c(=O)c2ccccc2c1=O)Nc1cccnc1 | – | inactive: -16.1% |
| CCCOc1ccc(-c2c(C(=O)N/N=C/c3ccc(OC)cc3)nnn2-c2nonc2N)cc1 | inconclusive: 28.2 µM [inhibitor, partial curve] | – |
| COc1ccc(-c2cc(C(F)(F)F)nc(SCCC(=O)N3CCOCC3)n2)cc1 | inconclusive: 25.1 µM [inhibitor, partial curve] | – |
| CCOC(=O)c1sc(NC(=O)c2cc(-c3ccccc3C)nc3ccccc23)c(C#N)c1C | inconclusive: 28.2 µM [inhibitor, single point] | – |
| CC1CCN(CC(=O)Nc2nn(-c3ccccc3)nc2C(N)=O)CC1 | inconclusive: 12.6 µM [inhibitor, partial curve] | – |
| CCOC(=O)c1ccc2c(c1)NCc1cccc(OC)c1O2 | inconclusive: 31.6 µM [inhibitor, partial curve] | – |
| C/C(CC(=O)Nc1cc(C)ccn1)=N\NC(=O)C(=O)Nc1cccc(C)c1 | inconclusive: 39.8 µM [inhibitor, single point] | – |
| Clc1ccccc1Cn1c(/C=C/c2ccco2)nc2ccccc21 | inconclusive: 31.6 µM [inhibitor, partial curve] | – |
| Cc1nn2c(N)c(C#N)cnc2c1-c1ccccc1 | inconclusive: 39.8 µM [inhibitor, single point] | – |

| Compound | Potency | activity change, negative = inhibition |
| --- | --- | --- |
| Cc1ccc(C(=O)Nc2cc(Cl)ccc2N2CCCCC2)s1 | inconclusive: 39.8 µM [inhibitor, single point] | – |
| O=c1c(O)cccc2cc(O)c(O)c(O)c12 | active: 7.94 µM and active: 3.98 µM | – |
| CC(NC(=O)OC(C)(C)C)C(=O)Oc1cc2oc(=O)cc(-c3ccccc3)c2cc1Cl (configuration not stated) | inconclusive: 25.1 µM [inhibitor, partial curve] | – |
| O=C(OCc1cnc(Cl)s1)c1c(F)cccc1F | inconclusive: 17.8 µM [inhibitor, partial curve] | – |
| CCCN(Cc1cc2cc(C)ccc2[nH]c1=O)C(=O)c1cccc(OC)c1 | inconclusive: 28.2 µM [inhibitor, partial curve] | – |
| O=C(OCC#CCSc1nnc(-c2cccc3ccccc23)o1)c1ccco1 | inconclusive: 35.5 µM [inhibitor, partial curve] | – |
| Cc1ccc(C(=O)Nc2cccc(C(F)(F)F)c2)cc1NC(=O)c1nccnc1N | inconclusive: 35.5 µM [inhibitor, single point] | – |
| O=[N+]([O-])c1ccc(NC(=S)N2CCc3ccccc3C2)cc1 | – | inactive: 2.04% |
| CN1C(=O)C(N=Nc2ccccc2C(=O)O)N(C)C1=S (configuration not stated) | – | inactive: -3.23% |
| Cc1ccc(-c2nnc(Nc3ccccc3)c3ccccc23)cc1S(=O)(=O)NCC1CCCO1 (configuration not stated) | inconclusive: 39.8 µM [inhibitor, single point] | – |
| CCOC(=O)N1CCN(c2nc(SC)nc3sc4c(c23)CC(C)(C)OC4)CC1 | inconclusive: 31.6 µM [inhibitor, partial curve] | – |
| COc1cc(OC)c2c(=O)cc(-c3cccnc3)oc2c1 | inconclusive: 35.5 µM [inhibitor, single point] | – |
| COc1cc(/C=C/C(=O)OCC(=O)NC(=O)NC(C)C)ccc1OCC#N | inconclusive: 28.2 µM [inhibitor, single point] | – |
| Cn1c(-c2cccc3ccccc23)n[nH]c1=S | inconclusive: 39.8 µM [inhibitor, single point] | – |
| CCOc1ccc2nc(N3CCOCC3)nc(C)c2c1 | inconclusive: 28.2 µM [inhibitor, partial curve] | – |
| COc1ccc(NCC(=O)Nc2ccc(Cl)cc2C)c(OC)c1 | inconclusive: 22.4 µM [inhibitor, single point] | – |
| COc1ccc(NC(=S)NNc2ccc(S(=O)(=O)Nc3ccccc3C(=O)O)cc2[N+](=O)[O-])cc1 | inconclusive: 39.8 µM [inhibitor, single point] | – |
| CCCSC(=S)c1c(C)[nH]n(-c2ccccc2)c1=O | inconclusive: 22.4 µM [inhibitor, single point] | – |
| Cc1cc(C)n2[nH]c(=O)c(N=Nc3ccc(S(N)(=O)=O)cc3)c2n1 | inconclusive: 39.8 µM [inhibitor, single point] | – |
| O=C(O)c1cc2ccccc2[nH]1 | inconclusive: 28.2 µM [inhibitor, partial curve] | – |
| NC(=O)COC(=O)c1oc2ccccc2c1CSc1ccc(Cl)cc1 | – | inactive: 16.3% |
| O=C(/C(=C/c1ccc(Cl)cc1)c1nc2ccccc2[nH]1)c1cccs1 | – | inactive: -1.27% |
| CCc1nnc(NC(=O)CSc2nc3c(cc2C#N)CCC3)s1 | inconclusive: 12.6 µM [inhibitor, partial curve] | – |
| Cc1cc(C(F)(F)F)nn1CC(=O)NNC(=S)Nc1cccc(Cl)c1 | – | inactive: 11.6% |
